About 50,000 (12%) of roughly 420,000 compounds were called active. The inconclusive results got no clear call from the source; some entries with a clear call stand among them for comparison. The call rests on the fitted dose curve; in most records, active means well fitted inhibition curve with a large enough effect; inconclusive means small, poorly fitted or top-dose-only effect; inactive means flat fitted curve, though single readings scatter. Potencies of inconclusive entries are left out as doubtful fits. More than one record can exist for a structure, and the calls need not agree.
Assay: qHTS for Inhibitors of human tyrosyl-DNA phosphodiesterase 1 (TDP1): qHTS in cells in presence of CPT; further: nearly all actives have a fitted effect of over 55% in size
Details: chicken DT40 Tdp1-/-;hTDP1 cells + 20 nM CPT, ATP luminescence, 48 h; activity change, negative = growth inhibition: at 46.2 µM (top of the series) unless noted
Summary of the method: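 Cell growth measured by CellTiter-Glo luminescence after a minimum 48 h, 37 C compound exposure with 20 nM CPT in Tdp1-knockout DT40 cells stably expressing hTDP1, seeded 400/well; qHTS titration format.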
On the % scale 0 is the no-effect control and ±100 the full control effect; potency means the concentration at half of the fitted maximal effect; tags describe the fitted curve by direction and shape.

Row | Structure (SMILES) | Potency | activity change, negative = growth inhibition
1 | NS(=O)(=O)c1ccc(CCNC(=O)CN2C(=O)c3ccccc3S2(=O)=O)cc1 | inactive | 
2 | COC(=O)c1ccc(Cn2c(SCc3ccccc3)nc3ccncc32)cc1 | inconclusive [inhibitor, single point] | 
3 | COc1ccc(OC)c(-c2csc(NC(=O)CN3C(=O)C4CCCCC4C3=O)n2)c1 (stereo not given) | inactive | 
4 | Cc1ncoc1C(=O)NC1CC(C)(C)Cc2c1cnn2-c1ccccc1 (stereo not given) | inactive | 
5 | Cc1cc(-c2nsc(=O)o2)c(S(C)(=O)=O)s1 | active: 20.6 µM | 
6 | Clc1ccc(CSc2cc3c(nn2)-c2ccccc2CC3)cc1 | inconclusive [inhibitor, partial curve, poor fit] | 
7 | CCc1ccc(-n2c(SCc3ccccc3C)nc3[nH]ncc3c2=O)cc1 | inconclusive [inhibitor, single point] | 
8 | OC(CN1CCCCCC1)CN(c1ccccc1)c1ccccc1 (stereo not given) | inconclusive [inhibitor, single point] | 
9 | COc1cc(CCC(=O)Nc2cc(Cl)ccc2N2CCN(C)CC2)cc(OC)c1OC | inactive | 
10 | CCc1c(C)c2ccc(O)c(CN3CCN(c4ccc(OC)cc4)CC3)c2oc1=O | inconclusive [inhibitor, single point] | 
11 | CC(NC(=O)CCc1ccccc1)c1cc2c(cc1Cl)OCCO2 (stereo not given) | active: 14.6 µM | 
12 | O=C(COc1ccc(C(=S)N2CCCC2)cc1)Nc1ccccc1C(F)(F)F | inconclusive [inhibitor, full curve, poor fit] | 
13 | O=C(CN1CCC(C(=O)c2ccc(F)cc2)CC1)Nc1ccccc1 | inconclusive [inhibitor, single point] | 
14 | C(=Nc1ccc(/C=C/c2ccnc3ccccc23)cc1)c1cc2c3c(c1)CCCN3CCC2 | active: 11.2 µM | 
15 | Cc1ccccc1[C@@H]1C(C#N)=C(N)S[C@H]1C(=O)c1ccccc1 | inconclusive [inhibitor, partial curve] | 
16 | Cc1cccc(-n2c(Cc3ccccc3)nnc2SCc2ccc([N+](=O)[O-])cc2)c1 | inconclusive [inhibitor, single point] | 
17 | Cc1ccccc1CNC(=O)c1ccc(CSc2nc3cccnc3n2Cc2ccccc2)cc1 | inconclusive [inhibitor, single point] | 
18 | N[C@H](CC(=O)O)C(=O)O | inactive | 
19 | O=C(Nc1cccc(C(=O)N2CCCC2)c1)c1ccccc1Cl | inactive | 
20 | NC(=O)CC[C@H](NC(=O)c1ccc(F)cc1)C(=O)OCC(=O)NCc1ccc2c(c1)OCO2 | inactive | 
21 | CCN1C(=O)N[C@@H](c2ccccc2)[C@H](C(C)=O)[C@H]1C | inactive | 
22 | Cc1ccc(CCNC(=O)c2ccc(CNS(=O)(=O)c3ccccc3)cc2)cc1 | active: 6.51 µM | 
23 | CCN(CC)C(=O)c1ccc(S(=O)(=O)NCc2cccnc2)cc1 | inconclusive [inhibitor, single point] | 
24 | CCOC(=O)N1CCN(C(=O)c2cc3cc(Cl)ccc3[nH]2)CC1 | inconclusive [inhibitor, single point] | 
25 | Cc1ccc(NCc2ccccc2O)c(C)c1 | inactive | 

Row | Structure (SMILES) | Potency | activity change, negative = growth inhibition
26 | CCOC(=O)N1CCN(C(=O)c2ccc3oc(CCCc4ccccc4)nc3c2)CC1 | inconclusive [inhibitor, partial curve] | 
27 | Cc1ccc(NC(=O)Cc2ccsc2)cc1Cl |  | inconclusive: -33.6% [inhibitor]
28 | CC(C)c1ccc(NC(=O)CCS(=O)(=O)c2cccc3nonc23)cc1 | active: 16.4 µM | 
29 | Cc1c(NC(=O)c2ccccc2NC(=O)COc2ccccc2)cccc1C(=O)O | inactive | 
30 | CN1C(=O)/C(=C/c2cccc(Cl)c2)Sc2ccc(C(=O)N3CCCC3)cc21 | inconclusive [inhibitor, single point] | 
31 | Cc1ccc(C(c2nnnn2Cc2ccccc2)N2CCN(Cc3ccncc3)CC2)cc1 (stereo not given) | inconclusive [inhibitor, single point] | 
32 | CC1(C(=O)NS(=O)(=O)c2ccccc2)CCN1C(=O)CC1CCCC1 (stereo not given) | inactive | 
33 | COc1ccc2[nH]c(C)c(CCNC(=S)Nc3ccccc3C)c2c1 | active: 18.4 µM | 
34 | COc1cc(NC(=O)c2cc([N+](=O)[O-])ccc2NC(=O)CNCc2ccccn2)cc(OC)c1 | inactive | 
35 | COc1ccc(-c2csc(CCn3nc(C)cc3C)n2)cc1 | inconclusive [inhibitor, single point] | 
36 | O=C(N/N=C1\CC(c2ccccc2)Oc2ccccc21)c1ccc(O)cc1 (stereo not given) | inconclusive [inhibitor, partial curve] | 
37 | CCC(=O)Nc1cc(C(=O)OCc2ccc(C(=O)Oc3ccccc3)cc2)ccc1C | inactive | 
38 | COc1cccc(NC(=O)CN(C)C(=O)CCSc2ccc(C)cc2)c1 | inconclusive [inhibitor, single point] | 
39 | CC(=O)Nc1ccc(NC(=O)c2cc3sccc3n2Cc2ccc(Cl)cc2)cc1 |  | inconclusive: -31.8% [inhibitor]
40 | CN(C)S(=O)(=O)c1cccc(NC(=S)NC2CCCCC2)c1 | inactive | 
41 | Cc1ccc(NC(=O)CN2CCCN(S(=O)(=O)c3ccc(Br)s3)CC2)cc1 | active: 18.4 µM | 
42 | Cc1nc(CS(=O)(=O)c2ccc(Cl)cc2)cc(Sc2ccc(Cl)cc2)n1 | inactive | 
43 | CCCCNC(=O)COC(=O)c1c2c(nc3ccccc13)CCC2 | inactive | 
44 | CCN(CC)C(=O)c1cccc(NC(=O)c2cc(C3CC3)nc3c2cnn3C(C)C)c1 | inconclusive [inhibitor, single point] | 
45 | COc1cc(C(=O)N2c3ccccc3CC2C)cc(OC)c1OC (stereo not given) | inconclusive [inhibitor, single point] | 
46 | COc1ccccc1NC(=O)CSc1nnc(Cc2cccn2C)n1CCc1ccccc1 | inactive | 
47 | Cc1cc(C)cc(NC(=O)Nc2ccccc2OCc2cc(=O)n3ccccc3n2)c1 | inconclusive [inhibitor, single point] | 
48 | N#Cc1ccc(S(=O)(=O)Nc2ccccc2N2CCOCC2)cc1 | inactive | 
49 | Cc1ccc2oc(-c3cccc(NC(=O)c4ccccn4)c3)nc2c1 | inconclusive [inhibitor, single point] | 
50 | CCOc1ccc(-c2nnc(NC(=O)C3CCCC3)o2)cc1 | inconclusive [inhibitor, single point] | 

Row | Structure (SMILES) | Potency | activity change, negative = growth inhibition
51 | S=C(NCCNC(=S)Nc1ccccc1Cl)Nc1ccccc1Cl | inactive | 
52 | Nc1ccc(C(=O)Nc2cccc3ncccc23)cc1 | inactive | 
53 | COc1cccc(N2CCN(c3nc(C)cc(=O)[nH]3)CC2)c1 | inactive | 
54 | CC(C)Nc1nc(NC(C)C)nc(Oc2ccc(OCc3ccccc3)nn2)n1 | inconclusive [inhibitor, single point] | 
55 | CC1Cc2cc(S(=O)(=O)N3CCN(c4ccccc4)CC3)ccc2N1C(=O)C1CC1 (stereo not given) | inconclusive [inhibitor, single point] | 
56 | CCOc1ccccc1NC(=O)c1c(NCc2cccs2)sc2c1CCCCC2 | inconclusive [inhibitor, single point] | 
57 | COc1ccc(N2CC(C)Cn3c2nc2c3c(=O)n(Cc3ccc(C)cc3)c(=O)n2C)c(OC)c1 (stereo not given) | inconclusive [inhibitor, single point] | 
58 | CCOC(=O)c1ccc(NC(=O)c2c(C)[nH]c(C(=O)OCC)c2C)cc1 | inactive | 
59 | O=C1CC(Sc2ccc(Cl)cc2)C(=O)N1c1ccc2c(c1)OCCO2 (stereo not given) | active: 2.91 µM | 
60 | OCCCCCCNc1ccc(CCO)cc1 | inactive | 
61 | Cc1nc2ccccc2n1CCC(=O)Nc1cccc(F)c1 | inconclusive [inhibitor, single point] | 
62 | c1ccc(Oc2ccc(-c3cc(NCCc4cccnc4)n4nccc4n3)cc2)cc1 | inconclusive [inhibitor, partial curve] | 
63 | CCOC(=O)C1=CN(Cc2cccc(F)c2)S(=O)(=O)N(CC)C1c1ccc2ccccc2c1 (stereo not given) | inconclusive [inhibitor, single point] | 
64 | O=C(NCc1ccccc1Cl)c1ccc(CS(=O)Cc2ccc(Cl)cc2)o1 (stereo not given) | inactive | 
65 | CCc1nn(-c2cc(Oc3ccccc3)nc(-c3ccccc3)n2)c(N)c1C#N | inconclusive [inhibitor, single point] | 
66 | CCOc1cc(/C=C(\C#N)C(=O)Nc2ccc(C)cc2)ccc1OCc1cc(=O)n2nc(CC)sc2n1 | inactive | 
67 | CCC(=O)NC(=S)Nc1cccc(NC(=O)c2ccco2)c1 | inactive | 
68 | Cc1cc(C)cc(C(=O)NC(CC(N)=O)c2ccc(NC3CCCCC3)c([N+](=O)[O-])c2)c1 (stereo not given) | inactive | 
69 | CCOc1ccc(NC(=O)c2c(NC(=O)c3ccccc3F)sc3c2CCC3)cc1 | inactive | 
70 | O=C(NCC(c1ccco1)N1CCc2ccccc2C1)c1ccc(F)cc1 (stereo not given) | inactive | 
71 | C=CCN1C(=O)/C(=C/c2ccc(OC(C)=O)c(OCC)c2[N+](=O)[O-])SC1=S | inconclusive [inhibitor, single point] | 
72 | C=CCNC(=O)/C(C#N)=C/c1c(N(Cc2ccccc2)Cc2ccccc2)nc2ccccn2c1=O | inconclusive [inhibitor, single point] | 
73 | O=C(NOCC1CC1)c1ccc(F)c(F)c1Nc1ccc(I)cc1Cl | inconclusive [inhibitor, single point] | 
74 | O=S(=O)(NCC(c1cccnc1)N1CCN(Cc2ccccc2)CC1)c1cc(F)ccc1F (stereo not given) | inconclusive [inhibitor, partial curve, poor fit] | 
75 | CCOc1cc(N2CCOCC2)c(OCC)cc1NC(=O)COC(=O)CCOc1cc(C)ccc1C | inconclusive [inhibitor, single point] | 

— PubChem BioAssay AID686979 (National Center for Advancing Translational Sciences (NCATS), 2013)
